Patent publication US11325936B2, “Sialidase inhibitors and preparation thereof” (The Regents of the University of California, priority 2017, dated 2022)

Tests used:
SpNanA = SpNanA (Streptococcus pneumoniae, UniProt P62575); assay: Sialidase inhibition assay (Example 7); assay type: biochemical; conditions: 2,7-anhydro-sialic acids; substrate Neu5Acα2-3GalβpNP; read-out: IC50 against SpNanA
SpNanB = SpNanB (Streptococcus pneumoniae serotype 4, UniProt Q54727, E68D/K536E/K577E/N393D/S59P); assay: Hydrolysis of 2,7-anhydro-sialic acids by SpNanB; conditions: same condition used for the hydrolysis of 2,7-anhydro-Neu5Ac
From the text: It was previously reported that SpNanB, similar to the leech intramolecular trans-sialidase, could have 2,7-anhydro-Neu5Ac hydrolysis activity (see, Xu, et al. J. Mol. Biol. 2008, 384, 436-449). […] However, this 2,7-anhydro-Neu5Ac hydrolysis hypothesis was never directly confirmed by followed up experiments, probably due to the limited access of the 2,7-anhydro-Neu5Ac substrate. We confirmed the 2,7-anhydro-Neu5Ac hydrolysis activity of SpNanB by directly treating 2,7-anhydro-Neu5Ac with SpNanB. In the presence of SpNanB (1.0 mg/mL), 2,7-anhydro-Neu5Ac could be converted to Neu5Ac in an estimated yield of 80% based on TLC after incubating in 37° C. for 24 h. Therefore, SpNanB catalyzes the formation of 2,7-anhydro-sialic acid which can be hydrolyzed slowly by SpNanB to form sialic acid.
The 2,7-anhydro-Neu5Ac hydrolysis activity of SpNanB is a concern since SpNanB might hydrolyze the 2,7-anhydro-Neu5cyclohexyl inhibitor.

SMILES | IC50 (SpNanA) [µM] | Hydrolysis by SpNanB (in words) (SpNanB)
O=C(N[C@H]1[C@H]2O[C@@](C(=O)O)(C[C@@H]1O)O[C@@H]2[C@H](O)CO)C(F)(F)F [2-2, 2,7-Anhydro-3,5-dideoxy-5-trifluoroacetamido-α-D-glycero-D-galacto-non-2-ulopyranosonic acid] | 145 ± 16 | 
O=C(O)[C@@]12C[C@@H](O)[C@@H](NC3CCCCC3)C(O1)[C@@H]([C@H](O)CO)O2 [2-4] |  | no hydrolysis activity was observed
